The values below come from publication PMC6212790.

Some of the results follow. At the low end of the ranking the order means little.

The experiment has as its target T1, GST-Rok-C97-191 (UniProt O34857).
T1 sequence: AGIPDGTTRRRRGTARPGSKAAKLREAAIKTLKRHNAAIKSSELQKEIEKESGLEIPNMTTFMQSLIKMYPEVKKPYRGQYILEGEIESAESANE
The experiment can be described thus: protein binding microarray.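 Also: rank score from −0.5 (least bound) to 0.5 (best bound).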 The conditions noted are these: Rok is a gene silencer of Bacillus subtilis; high values mean tight binding; most listed sequences are background and not binding sites; double strand, one strand shown.
As for CATCCAAG, the binding signal is -0.0858 E-score.
As for AAGCGAGG, the binding signal is -0.311 E-score.
Consider ACGACAGT, for which the binding signal was found to be 0.0839 E-score.
In turn, GAATCTTA came in with a binding signal of 0.0684 E-score.
Sequence ATACGCTA registered a binding signal of 0.103 E-score.
On to ATCGGCGA, for which the binding signal was determined as 0.0338 E-score.
To TAGGACAA belongs 0.146 E-score.
For the sequence CATTCTGG, the binding signal is -0.0917 E-score.
To AATAGAGT belongs 0.0487 E-score; to CTGGACTC, -0.291 E-score; to AAGGATTC, -0.00702 E-score.
In turn, AATGTCTC came in with a binding signal of 0.0717 E-score.
AGTCCGGC had a binding signal of -0.179 E-score.
To GGTACAGA belongs -0.0072 E-score.
In turn, GTCAGGAC returned a binding signal of -0.147 E-score.
ATGAGACG displayed a binding signal of -0.295 E-score.
Sequence CTCGCGGA gave a binding signal of -0.148 E-score.
Sequence AGCCTATG came in with a binding signal of -0.235 E-score.
With AACCTCGG, the binding signal was -0.032 E-score.
CATTATGC returned a binding signal of 0.0911 E-score.
The sequence TCTACAGA displayed a binding signal of 0.179 E-score.
Sequence ATCCACAC displayed a binding signal of -0.0273 E-score.
CATTCATA yielded a binding signal of 0.181 E-score.
In the case of ATAGAACA, the binding signal stood at 0.282 E-score.
In turn, ACATTCTC registered a binding signal of 0.0633 E-score.
For the sequence AAAACAGG, the binding signal was determined as 0.146 E-score.
Turning to ACCCCTAT, the binding signal was -0.0807 E-score.
Sequence CAAGTGCA returned a binding signal of 0.000567 E-score.
Sequence ACACCCAT registered a binding signal of -0.107 E-score.
In turn, CCCCAGTA gave a binding signal of 0.021 E-score.
In the case of CGTCTGCA, the binding signal is -0.0581 E-score.
To AGGCGACG belongs -0.051 E-score; to AGGCTAGA, -0.0549 E-score; to TGGGCACA, -0.127 E-score.
To AGCGTCTC belongs -0.00989 E-score; to CTCCGCAG, -0.295 E-score; to TAGCGGGA, -0.101 E-score.
ACGACAAG gave a binding signal of -0.022 E-score.
GAGTATGA had a binding signal of 0.056 E-score.
To GTAGAAAA belongs 0.384 E-score; to TACTTAGA, 0.298 E-score; to AGGATGGG, -0.087 E-score.
Take CGGGGTTA: the binding signal was -0.251 E-score.
To GTGACATA belongs 0.0259 E-score; to TCGCTAAA, 0.177 E-score.
Turning to GAAGAACC, the binding signal amounted to 0.0595 E-score.
To ACATAGGA belongs 0.266 E-score; to AACGTATG, 0.128 E-score.
In turn, CTTGGCAA had a binding signal of 0.0183 E-score.
In turn, ATGAAGTC yielded a binding signal of -0.0201 E-score.
CAACTACG yielded a binding signal of 0.113 E-score.
As for AACAACTT, the binding signal turned out to be 0.144 E-score.
To ACGAACCC belongs -0.114 E-score; to CGGATCTA, 0.0459 E-score; to TCAGCCCA, -0.191 E-score.
Consider ACTAAGCA, for which the binding signal came to 0.0291 E-score.
As to AACGCGTA, the binding signal was found to be 0.0641 E-score.
For AAGTTGAA, the binding signal was -0.0457 E-score.
In the case of CGCACGAC, the binding signal is -0.102 E-score.
As for CATCATAC, the binding signal came out at 0.17 E-score.
On to GAGGGACA, for which the binding signal is -0.254 E-score.
AAGTAGAT came in with a binding signal of 0.407 E-score.
ATGGCCAG returned a binding signal of -0.0593 E-score.
TACTATAA showed a binding signal of 0.408 E-score.
Sequence TCCCGGCA displayed a binding signal of -0.0806 E-score.
Sequence CAAGGGGC came in with a binding signal of -0.366 E-score.
AATGTCAC gave a binding signal of 0.16 E-score.
In turn, AATGACCG registered a binding signal of -0.0146 E-score.
For the sequence CATTGGAG, the binding signal is -0.128 E-score.
To GACCGTTA belongs 0.0141 E-score.
In turn, TACCATAA had a binding signal of 0.354 E-score.
Turning to GGCTGAAC, the binding signal is -0.186 E-score.
Consider ACTCTGAC, for which the binding signal is -0.0474 E-score.
In turn, CGTAGACG registered a binding signal of -0.165 E-score.
As to TCATGAAA, the binding signal stood at 0.0251 E-score.
AGCGTTGC: the binding signal is -0.0489 E-score.
On to ACTTTGGC, for which the binding signal is -0.0258 E-score.
Regarding CATACGAG, the binding signal turned out to be 0.116 E-score.
To AAAACCTG belongs 0.0387 E-score; to GGTCCTCA, -0.158 E-score; to AGCTAGAT, 0.152 E-score.
Regarding AAAATCGC, the binding signal came to 0.0684 E-score.
For GCGCCTAA, the binding signal was -0.22 E-score.
To CATTACTC belongs 0.131 E-score; to CAACGTAC, 0.039 E-score; to TACCCTAA, -0.0802 E-score.
CCGCGACC: the binding signal is -0.277 E-score.
To ACTGGACT belongs -0.138 E-score.
Turning to CGACTCAG, the binding signal is -0.113 E-score.
ATATTATC showed a binding signal of 0.245 E-score.
With GAGTTTAC, the binding signal amounted to 0.174 E-score.
Turning to GCAGCACC, the binding signal is -0.161 E-score.
To CAGTGATG belongs -0.175 E-score; to ATGATACC, 0.178 E-score.
